From PubChem BioAssay (NCI)
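How tested: cells in 96-well plates exposed to compound for 48 hours at five concentrations. GI50 marks 50% less growth. At the TGI there is no net growth.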

tested on: NCI-H322M lung; experiment: NCI anticancer screen, dose series, 48 h

SMILES	GI50	TGI
N#C/C(=C\c1ccc(-c2ccc(F)cc2)o1)C(=O)Nc1ncc(Cc2ccc(Cl)cc2Cl)s1	4.23 µM	> 100 µM
CCOC(=O)c1c(NC(=O)c2ccc(C(F)(F)F)cc2)sc2c3c(ccc12)OCN(C)C3	1.69 µM	3.1 µM
CCOc1ccc([C@H]2C(C(=O)c3ccc(Cl)cc3)C3(N[C@@H]2c2ccccc2)C(=O)Nc2ccc(Br)cc23)cc1 (stereo partly specified)	14.8 µM	28.7 µM
